Here are results for 3 molecules from paper PMC10657422.

Chains of the proteins cited; added tags and fusions are not shown.
UniProt Q96704: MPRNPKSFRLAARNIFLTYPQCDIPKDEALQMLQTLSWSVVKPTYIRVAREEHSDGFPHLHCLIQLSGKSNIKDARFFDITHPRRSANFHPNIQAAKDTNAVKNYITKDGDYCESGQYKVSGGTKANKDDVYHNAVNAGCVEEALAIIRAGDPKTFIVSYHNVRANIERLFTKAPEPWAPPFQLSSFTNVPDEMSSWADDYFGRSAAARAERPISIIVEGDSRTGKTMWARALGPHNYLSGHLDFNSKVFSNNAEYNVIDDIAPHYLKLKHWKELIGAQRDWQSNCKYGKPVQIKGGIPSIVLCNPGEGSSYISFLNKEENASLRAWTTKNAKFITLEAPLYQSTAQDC

No constants are given. Whether binding was seen depends on the method and setting. In cells and extracts the contact can be indirect. Some results given as binding are weak or reduced against the parent protein; the word gives no strength. Where a sequence is shown, tags or fusion partners need not be part of it.

The target of test [1] is T1, cYFP-RAD51 (Arabidopsis thaliana) (UniProt P94102).
T1 sequence: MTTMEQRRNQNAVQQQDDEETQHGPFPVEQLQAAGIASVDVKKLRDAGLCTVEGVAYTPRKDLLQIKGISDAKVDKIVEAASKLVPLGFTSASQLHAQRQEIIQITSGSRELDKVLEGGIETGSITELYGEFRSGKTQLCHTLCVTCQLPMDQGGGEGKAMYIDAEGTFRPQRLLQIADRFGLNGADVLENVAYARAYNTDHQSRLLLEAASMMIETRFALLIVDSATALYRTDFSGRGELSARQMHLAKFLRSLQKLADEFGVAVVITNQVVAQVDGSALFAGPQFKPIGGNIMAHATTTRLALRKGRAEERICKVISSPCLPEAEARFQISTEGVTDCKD
In words: split reporter; BiFC of YFP; nYFP and cYFP fusions co-expressed in Arabidopsis protoplasts of Col-0 and of atxr5 atxr6; confocal microscopy 16 h after transfection.

The target in test [2] is FM-Rep (Flag-4Myc-tagged Rep of CaLCuV) (Cabbage Leaf Curl Virus (CaLCuV)) (UniProt Q96704). The test can be described thus: co-IP; co-expressed in N. benthamiana leaves by agroinfiltration; total protein extract; IP buffer 40 mM Tris-HCl pH 8.0, 150 mM NaCl, 5 mM MgCl2, 1% glycerol, 0.6% Triton X-100; anti-HA agarose or anti-FLAG-M2 magnetic beads, 4 °C, 2 h; Turbo DNase (10 U/ml) in the buffer; blots with anti-Myc or anti-HA.

The target in test [3] is T2, FM-RAD51 (Flag-4Myc-tagged RAD51) (Arabidopsis thaliana) (UniProt P94102).
T2 sequence: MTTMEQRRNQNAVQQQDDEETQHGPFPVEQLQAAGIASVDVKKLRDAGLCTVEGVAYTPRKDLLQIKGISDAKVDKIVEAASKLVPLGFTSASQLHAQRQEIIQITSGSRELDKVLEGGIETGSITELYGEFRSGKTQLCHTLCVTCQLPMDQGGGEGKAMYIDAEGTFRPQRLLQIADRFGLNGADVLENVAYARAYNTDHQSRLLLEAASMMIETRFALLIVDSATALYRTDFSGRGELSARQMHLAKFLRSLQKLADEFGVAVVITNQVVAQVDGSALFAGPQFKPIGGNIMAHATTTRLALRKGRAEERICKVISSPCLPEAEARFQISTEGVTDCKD
Described as above.

Test [4] has as its target T3, HA-CYCB1 (HA-tagged CYCB1;1) (Arabidopsis thaliana) (UniProt P30183).
T3 sequence: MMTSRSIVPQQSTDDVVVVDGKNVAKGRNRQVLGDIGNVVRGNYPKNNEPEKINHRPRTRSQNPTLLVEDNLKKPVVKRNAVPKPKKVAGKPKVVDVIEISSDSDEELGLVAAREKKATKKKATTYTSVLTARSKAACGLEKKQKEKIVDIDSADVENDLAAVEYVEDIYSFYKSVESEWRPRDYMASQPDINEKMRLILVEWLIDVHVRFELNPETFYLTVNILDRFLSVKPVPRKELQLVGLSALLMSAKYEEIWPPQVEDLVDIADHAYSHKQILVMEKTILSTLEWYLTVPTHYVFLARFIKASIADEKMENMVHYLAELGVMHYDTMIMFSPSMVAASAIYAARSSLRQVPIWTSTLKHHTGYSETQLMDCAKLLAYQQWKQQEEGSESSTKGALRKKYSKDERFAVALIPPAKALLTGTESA
The test can be described thus: co-IP; co-expressed in N. benthamiana leaves by agroinfiltration; total protein extract; IP buffer 40 mM Tris-HCl pH 7.0, 150 mM NaCl, 5 mM MgCl2, 1% glycerol, 0.6% Triton X-100; anti-HA agarose or anti-FLAG-M2 magnetic beads, 4 °C, 2 h; Turbo DNase (10 U/ml) in the buffer; blots with anti-Myc or anti-HA.

For test [5], the target named is T4, HA-BRCA1 (HA-tagged BRCA1) (Arabidopsis thaliana) (UniProt Q8RXD4).
T4 sequence: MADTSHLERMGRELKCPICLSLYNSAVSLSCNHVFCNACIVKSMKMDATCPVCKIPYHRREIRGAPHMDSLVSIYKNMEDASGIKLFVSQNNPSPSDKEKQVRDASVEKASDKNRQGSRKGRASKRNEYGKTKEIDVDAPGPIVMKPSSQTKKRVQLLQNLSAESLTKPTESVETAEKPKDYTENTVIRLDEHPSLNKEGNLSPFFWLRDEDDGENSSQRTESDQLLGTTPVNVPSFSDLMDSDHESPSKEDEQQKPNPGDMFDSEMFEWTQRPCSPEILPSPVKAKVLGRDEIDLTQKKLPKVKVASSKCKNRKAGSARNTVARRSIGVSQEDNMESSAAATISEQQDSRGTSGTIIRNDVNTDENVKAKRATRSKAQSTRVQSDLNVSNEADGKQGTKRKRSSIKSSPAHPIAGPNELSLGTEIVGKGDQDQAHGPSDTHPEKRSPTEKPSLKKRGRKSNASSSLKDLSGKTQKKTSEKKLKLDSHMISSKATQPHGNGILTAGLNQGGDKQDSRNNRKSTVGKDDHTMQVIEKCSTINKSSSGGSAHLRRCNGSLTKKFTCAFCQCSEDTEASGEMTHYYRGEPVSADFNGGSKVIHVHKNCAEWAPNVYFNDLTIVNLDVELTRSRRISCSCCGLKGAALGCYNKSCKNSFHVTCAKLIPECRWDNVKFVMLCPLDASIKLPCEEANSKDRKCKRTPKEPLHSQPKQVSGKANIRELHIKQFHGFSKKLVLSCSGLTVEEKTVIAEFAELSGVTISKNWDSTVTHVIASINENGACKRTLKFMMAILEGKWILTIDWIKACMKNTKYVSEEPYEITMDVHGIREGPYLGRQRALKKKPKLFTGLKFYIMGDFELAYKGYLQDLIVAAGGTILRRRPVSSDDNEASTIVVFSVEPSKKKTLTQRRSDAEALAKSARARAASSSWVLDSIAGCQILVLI
The description is as above.

Test [6] has as its target HA-Rep (HA-tagged Rep of CaLCuV) (Cabbage Leaf Curl Virus (CaLCuV)) (UniProt Q96704). The test can be described thus: co-IP; co-expressed in N. benthamiana leaves by agroinfiltration; total protein extract; IP buffer 40 mM Tris-HCl pH 8.0, 150 mM NaCl, 5 mM MgCl2, 1% glycerol, 0.6% Triton X-100; anti-HA agarose or anti-FLAG-M2 magnetic beads, 4 °C, 2 h; Turbo DNase (10 U/ml) in the buffer; blots with anti-Myc or anti-HA.

For nYFP-Rep (from UniProt Q96704 1-349), the binding result in test [1] is given as “binds”.

B1: HA-RPA1A (HA-tagged RPA1A) (protein, UniProt Q9SKI4 1-640)
chain: MPVSLTPNAITAIHDGDVNLKPLLQVLEIKMIGRSQERSQERYRFLISDGVSAQHAMVAVQLNDRVKSGQFEKGSIVQLIDYICSDVKGRKLIVVLNMETIVQQSETIGNPTIFGETDTEAQKTFSGTGNIPPPNRVVFNEPMVQHSVNRAPPRGVNIQNQANNTPSFRPSVQPSYQPPASYRNHGPIMKNEAPARVIPIAALNPYQGRWAIKARVTAKGDIRRYNNAKGDGKVFSFDLLDYDGGEIRVTCFNALVDRFYDVTEVGKVYLISKGSLKPAQKNFNHLKNEWEIFLESTSTVELCPDEDGSIPKQQFSFRPISDIENAENNTILDVIGVVTSVNPSVPILRKNGMETHRRILNLKDESGKAVEVTLWGEFCNRDGRQLEEMVDSAFHPVLAIKAGKVSDFSGKSVGTISSTQLFINPDFPEAHKLRTWFDYGGKDTASFSISRDTMPGGVSRNEIRKNVSQIKEEGLGRSDKPDWITVKATISFIKTDSFCYTACPLMIGDKQCNKKVTRSGTNRWLCDRCNQESDECDYRYLLQVQIQDHTGLTWITAFQETGEEIMGCPAKKLYAMKYELEKEEEFAEIVRDRLFHQYMLKLKIKEESYGDEQRVKMTVVKVDKVNYTSESKYMLDLLVR
As for B1, the binding result in test [2] and in test [3] was “binds” each time.

B2: FM-RAD51 (Flag-4Myc-tagged RAD51) (protein, UniProt P94102 1-342)
chain: MTTMEQRRNQNAVQQQDDEETQHGPFPVEQLQAAGIASVDVKKLRDAGLCTVEGVAYTPRKDLLQIKGISDAKVDKIVEAASKLVPLGFTSASQLHAQRQEIIQITSGSRELDKVLEGGIETGSITELYGEFRSGKTQLCHTLCVTCQLPMDQGGGEGKAMYIDAEGTFRPQRLLQIADRFGLNGADVLENVAYARAYNTDHQSRLLLEAASMMIETRFALLIVDSATALYRTDFSGRGELSARQMHLAKFLRSLQKLADEFGVAVVITNQVVAQVDGSALFAGPQFKPIGGNIMAHATTTRLALRKGRAEERICKVISSPCLPEAEARFQISTEGVTDCKD
Turning to B2, the binding result in test [4], in test [5] and in test [6] was “binds” each time.
